Data from PubChem BioAssay AID1468 (National Center for Advancing Translational Sciences (NCATS), 2008).
Screen size: about 280,000 compounds; about 1,100 (0.39%) were called active. This list was built around the results that the source calls inconclusive (neither active nor inactive); the mix of calls is not that of the screen. The call rests on the fitted dose curve; in most records, active means well fitted inhibition curve with a large enough effect; inconclusive means small, poorly fitted or top-dose-only effect, or effect the other way; inactive means flat fitted curve, though single readings scatter. Potencies of inconclusive entries are left out as doubtful fits.

molecular target: Microtubule-associated protein tau (Homo sapiens) (UniProt P10636); experiment: qHTS for Inhibitors of Tau Fibril Formation, Fluorescence Polarization; conditions: K18 P301L tau heparin fibrillization, Alexa594 FP, 6 h; series mostly up to 57.7 µM; activity, negative = inhibition: at the top concentration; further: nearly all actives have a fitted effect of over 55% in size
Summary of the method: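 Read-out: fluorescence polarization of Alexa 594-labeled tau (0.24 uM), 555 nm excitation, 632 nm emission. Mixtures held 15 uM unlabeled K18 P301L, compound and 20 uM heparin, pH 7 acetate buffer, incubated 6 hr at 37 C.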
On the % scale 0 is the no-effect control and ±100 the full control effect; potency means the concentration at half of the fitted maximal effect; tags describe the fitted curve by direction and shape.

Sequence of UniProt P10636 (P10636 whole entry, looked up): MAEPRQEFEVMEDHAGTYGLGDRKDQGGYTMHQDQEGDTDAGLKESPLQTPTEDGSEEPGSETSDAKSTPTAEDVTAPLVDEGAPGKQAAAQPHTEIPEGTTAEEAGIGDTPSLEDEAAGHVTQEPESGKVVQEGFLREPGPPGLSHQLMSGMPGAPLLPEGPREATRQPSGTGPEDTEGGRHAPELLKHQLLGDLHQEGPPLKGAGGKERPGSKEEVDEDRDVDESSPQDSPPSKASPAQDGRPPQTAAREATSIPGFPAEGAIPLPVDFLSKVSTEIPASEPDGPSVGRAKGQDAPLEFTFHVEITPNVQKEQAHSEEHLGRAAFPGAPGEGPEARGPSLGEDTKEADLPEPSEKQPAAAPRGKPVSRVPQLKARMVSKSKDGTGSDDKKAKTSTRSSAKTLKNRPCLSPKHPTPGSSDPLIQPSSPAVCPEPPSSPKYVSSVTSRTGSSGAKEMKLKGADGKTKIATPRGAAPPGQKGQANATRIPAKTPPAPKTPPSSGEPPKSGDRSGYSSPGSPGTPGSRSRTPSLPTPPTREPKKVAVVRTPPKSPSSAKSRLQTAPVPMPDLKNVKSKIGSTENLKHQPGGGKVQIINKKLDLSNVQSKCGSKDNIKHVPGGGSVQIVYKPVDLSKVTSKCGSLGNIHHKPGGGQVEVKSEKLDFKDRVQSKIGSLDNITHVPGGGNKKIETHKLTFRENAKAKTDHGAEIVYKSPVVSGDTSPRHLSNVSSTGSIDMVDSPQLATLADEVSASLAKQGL

Row | Compound | Potency | activity, negative = inhibition
1 | COc1ccc2c(c1)c1nc3ccccc3nc1n2CCCN1C(=O)c2ccccc2C1=O | inconclusive [inhibitor, full curve, poor fit] | 
2 | COc1ccccc1-c1csc(NC(=O)c2ccc(N3C(=O)CCC3=O)cc2)n1 | inconclusive [inhibitor, single point] | 
3 | Cc1ncc2c(c1OC(=O)c1ccccc1)COC(C)(C)OC2 | inconclusive [inhibitor, partial curve, poor fit] | 
4 | O=C(Oc1ccccc1N1CCOCC1)c1ccccc1 | inconclusive [inhibitor, single point] | 
5 | CCc1ccc(-c2nn(CC(=O)NCc3ccccc3)c3c2cnc2ccc(F)cc23)cc1 |  | inactive: 1.34%
6 | CC(=O)Nc1ccc2nc(SCCOc3cc(C)cc(C)c3)sc2c1 | active: 12.6 µM | 
7 | O=C(NC(=S)Nc1nc(-c2ccc(Br)cc2)cs1)c1ccco1 | inconclusive [inhibitor, single point] | 
8 | COC(=O)c1ccc(OCC2c3cc(OC)c(OC)cc3CCN2C(=O)Cc2ccccc2)cc1 (stereo unspecified) |  | inactive: 2.94%
9 | C/C(CC(=O)C(F)(F)F)=N\NC(=O)/C(C#N)=C/N(C)C |  | inactive: 3.61%
10 | CN(CC(=O)NCc1ccccc1)S(=O)(=O)c1ccc2[nH]c3c(c2c1)CCCC3 | inconclusive [activator, single point] | 
11 | O=C(C#Cc1ccccc1)c1ccc([N+](=O)[O-])cc1 | inconclusive [inhibitor, single point] | 
12 | CCN(Cc1ccccc1)S(=O)(=O)c1cc(C(=O)Nc2cc(Cl)cc(Cl)c2)ccc1F | inconclusive [inhibitor, partial curve] | 
13 | COc1ccc(-c2[nH]c(-c3cccc(OC)c3)nc2SCC(=O)NC2CCCC2)cc1 | inconclusive [activator, partial curve] | 
14 | COC(=O)c1cccc(NC(=O)/C=C/c2cccc([N+](=O)[O-])c2)c1 | inconclusive [inhibitor, single point] | 
15 | O=C(c1cc(-c2cccs2)on1)N1CCCc2ccccc21 |  | inactive: -4.36%
16 | O=[N+]([O-])c1cc2c(cc1/C=N/Nc1nc(N3CCCC3)nc(N3CCCC3)n1)OCO2 |  | inactive: -0.592%
17 | CCC(=O)N1CCc2cc(Br)cc(S(=O)(=O)N3CCCC(C(=O)Nc4cccc(F)c4)C3)c21 (stereo unspecified) | inconclusive [inhibitor, single point] | 
18 | CCOC(=O)CSc1nc2sc3c(c2c(=O)n1-c1ccccc1)CCC(C(C)(C)C)C3 (stereo unspecified) | inconclusive [inhibitor, single point] | 
19 | CC(C)Oc1ccc(CNC(=O)c2cccc(NC(=O)N3CCSc4ncccc43)c2)cc1 |  | inactive: -1.62%
20 | CCOc1ccc(C(c2c(O)nc(SC)n(C)c2=O)c2c(O)nc(SC)n(C)c2=O)cc1 | inconclusive [inhibitor, full curve] | 
21 | COc1ccc(CC(=O)NCc2ccc3c(c2)CCN3C(=O)c2ccc(Cl)cc2)cc1 | inconclusive [inhibitor, single point] | 
22 | CN1C(=O)/C(=C/C=C2/CCCN2C)N(C)C1=S | inconclusive [inhibitor, single point] | 

Row | Compound | Potency | activity, negative = inhibition
23 | CCc1ccc2oc(-c3cc(NC(=O)c4cccnc4)cc(C)c3O)nc2c1 | inconclusive [inhibitor, partial curve] | 
24 | Cc1ccc(OCCOc2cccc3ccc(C)nc23)c([N+](=O)[O-])c1 |  | inactive: -6.79%
25 | CCOC(=O)c1cc(-c2ccccc2)n(-c2cccc(C(=O)Nc3cc(OC)cc(OC)c3)c2)c1C | inconclusive [inhibitor, partial curve] | 
26 | Cn1c(=O)oc2cc(S(=O)(=O)N3CCC(C(=O)Nc4ccc(F)c(Cl)c4)CC3)ccc21 | inconclusive [inhibitor, single point] | 
27 | O=C(Nc1cccc(Br)c1)N1CCC(CN2CCCCCC2)CC1 | inconclusive [inhibitor, single point] | 
28 | N#CC1=C(N)OC2=C(C(=O)CC(c3ccco3)C2)C1c1ccc(OCc2c(F)cccc2Cl)cc1 (stereo unspecified) | inconclusive [inhibitor, partial curve] | 
29 | CC1(c2ccccc2)CC(C)(C)N2C(=O)/C(=C3\SC(=S)NC3=O)c3cccc1c32 (stereo unspecified) | inconclusive [activator, full curve, poor fit] | 
30 | CCc1ccc(S(=O)(=O)c2nnn3c2nc(Nc2ccc(F)cc2)c2cc(Cl)ccc23)cc1 | active: 14.1 µM | 
31 | Cc1ccccc1Nc1oc(-c2ccccc2)nc1-c1ccccc1 |  | inactive: -8.67%
32 | COc1cccc(/C=N/NC(=O)c2cc3c(OC)cccc3[nH]2)c1OC | inconclusive [activator, single point] | 
33 | O=C(C1=C(O)C(=O)N(c2ncccn2)C1c1ccc(Cl)cc1)c1ccco1 (stereo unspecified) |  | inactive: 2.29%
34 | O=C(Nc1cccnc1)c1cc(-c2cccc(Cl)c2)on1 | inconclusive [inhibitor, single point] | 
35 | CCOc1cc(NC(=S)NCC2CCCO2)c(OCC)cc1NC(=O)c1ccccc1C (stereo unspecified) |  | inactive: 13.6%
36 | Cc1ccccc1C(=O)Oc1c(Sc2ccccc2)c(C)nn1C(C)(C)C | inconclusive [inhibitor, partial curve, poor fit] | 
37 | COc1ccc2c(c1)cc1n2CCN=C1NCCO | inconclusive [inhibitor, full curve, poor fit] | 
38 | O=[N+]([O-])c1cccc(-c2ccc(SCc3cccnc3)nn2)c1 |  | inactive: 1.54%
39 | CC1=C(C(N)=O)C(c2cccs2)NC(=S)N1 (stereo unspecified) | inconclusive [activator, single point] | 
40 | COc1ccc(/C=C2\SC(=S)N(CC(=O)N3CCN(C)CC3)C2=O)cc1 |  | inactive: 4.02%
41 | COc1nc(-c2ccccc2)ccc1-c1noc(-c2ccco2)n1 | inconclusive [inhibitor, single point] | 
42 | CCN(CC)CCNC(=O)Nc1ccc2c(c1)N(Cc1ccccc1)C(=O)c1ccccc1S2 | inconclusive [inhibitor, partial curve] | 
43 | CCN(Cc1ccccc1)c1ncnc2c1nnn2C | inconclusive [inhibitor, partial curve, poor fit] | 
44 | O=C(c1ccc([N+](=O)[O-])cc1)N1CCSC1c1ccccc1Cl (stereo unspecified) | inconclusive [inhibitor, full curve, poor fit] | 

Row | Compound | Potency | activity, negative = inhibition
45 | COc1ccc(OC)c(/C=C/C(=O)Nc2ccc(C(=O)OCCC(C)C)cc2)c1 | inconclusive [inhibitor, full curve] | 
46 | CCCc1c(C(=O)NNc2cccc(Cl)c2)cnn1-c1ccccc1 | inconclusive [inhibitor, single point] | 
47 | CC(=O)Nc1ccc2c(c1)OCO2 |  | inactive: 1.78%
48 | COc1ccc(N2C=C3C(=O)C(C)(OC(=O)CCc4ccccc4)C(=O)C=C3C=C2c2ccc(C#N)cc2)cc1 (stereo unspecified) | inconclusive [inhibitor, partial curve] | 
49 | CCN(CC)S(=O)(=O)c1cc(C)ccc1NC(=S)Nc1cccnc1 | active: 31.6 µM | 
50 | CCCCCSc1nc2c(cnn2-c2ccccc2)c(=O)[nH]1 |  | inactive: 1.87%
51 | O=C(c1ccco1)n1nc(-c2ccccc2)nc1SCc1ccccc1 | inconclusive [inhibitor, single point] | 
52 | COc1ccc(C(=O)Nn2c(SCC(=O)c3ccccc3)nc3ccccc3c2=O)cc1 | inconclusive [inhibitor, partial curve, poor fit] | 
53 | COc1cc(-c2nc(Cn3nnc(C(=O)Nc4ccc(C)cc4C)c3C)c(C)o2)cc(OC)c1OC | inconclusive [activator, single point] | 
54 | CC(=O)N1N=C(c2ccco2)CC1c1ccc(Br)cc1 (stereo unspecified) |  | inactive: 1.8%
55 | COc1ccc([C@@H]2CNC(=O)C2)cc1OC1CCCC1 | inconclusive [inhibitor, single point] | 
56 | CCN1C(=O)/C(=C/C=C2\C=CN(CC)c3ccccc32)SC1=S | inconclusive [inhibitor, partial curve, poor fit] | 
57 | N#C/C(=C/c1ccc(O)c(O)c1)C(=O)OC/C=C/c1ccccc1 | inconclusive [inhibitor, single point] | 
58 | COc1ccc(NC(=O)Cn2ncc3c2-c2ccccc2OC3)cc1Cl | inconclusive [inhibitor, single point] | 
59 | O=C(CSc1nc2c([nH]c3ccccc32)c(=O)n1-c1ccccc1)Nc1ccc2c(c1)OCCO2 | inconclusive [inhibitor, partial curve, poor fit] | 
60 | CN1CCN(S(=O)(=O)c2cccc(C(=O)Nc3sc4c(c3-c3nc5ccccc5[nH]3)CCCC4)c2)CC1 | inconclusive [activator, full curve, poor fit] | 
61 | Cc1nc(NC(=O)c2ccc(OCC(C)C)cc2)sc1Cc1ccc2c(c1)OCO2 |  | inactive: 2.01%
62 | COc1ccccc1NS(=O)(=O)c1cc(NC(=O)c2ccc3c(c2)OCCO3)ccc1C | inconclusive [inhibitor, partial curve] | 
63 | CCCCC1=CC2=C(c3ccco3)C(=O)C(C)(OC(=O)c3cccs3)C(=O)C2=CO1 (stereo unspecified) | inconclusive [inhibitor, single point] | 
64 | Cc1cccc(N(CC(=O)NCCSCc2ccccc2)S(=O)(=O)c2ccccc2)c1C |  | inactive: -8.29%
65 | Oc1ccc2ccccc2c1C=NCc1ccccc1 | inconclusive [inhibitor, single point] | 
66 | Cc1ccc(C(=O)c2cn(Cc3ccccc3)c3nc(C)ccc3c2=O)cc1 |  | inactive: -3.27%
